Results published in PubChem BioAssay AID1508623 (National Center for Advancing Translational Sciences (NCATS), 2021).
Hit rate of the full screen: of about 48,000 compounds, about 450 (0.94%) were called active. Another 19% or so got no clear call; they are omitted. The call rests on the fitted dose curve; in most records, active means well fitted inhibition curve with a large enough effect; inconclusive means small, poorly fitted or top-dose-only effect; inactive means no such curve, though single readings can be large or run the other way. The list shows a part of the results.

Test: Primary qHTS for Identification of Small Molecule Inhibitors of Huntingtin Promoter Activity; further: nearly all actives have a fitted effect of over 50% in size
Conditions: HEK293 HTT promoter firefly luciferase reporter (activity 0% = vehicle and -100% = no light), 24 h; series mostly up to 57.5 µM; activity change, negative = inhibition: at the top concentration
How it was run: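 HEK293 cells carrying firefly luciferase reporters were seeded at 2,500 per well in Opti-MEM and cultured for 24 h. They were then treated with compounds at up to 57.5 uM final for 24 h at 37 degrees C before Dual-Glo luminescence readout.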

Activity change, negative = inhibition, inactive:
COc1cccc2c1cc1c(=O)n(CC(=O)NC3CCCCC3)nc(C)n12 -1.83%
COc1cc(C(=O)N2CCN(c3ccc(Nc4ccc(C)cc4)nn3)CC2)cc(OC)c1OC -9.71%
Cc1ccc(C(=O)Nc2cccc(OCc3cc(=O)n4c5c(sc4n3)CCCC5)c2)cc1 -6.77%
NC(=O)CSc1oc(-c2ccco2)nc1S(=O)(=O)c1ccc(Cl)cc1 -20.7%
Cc1ccc(NC(=O)c2cc3cc(C)ccc3n2C)cc1 -1.05%
O=C(NCCc1ccccc1)c1sc2ncccc2c1-n1cccc1 11.5%
CCCc1cnc2c(c1SCC(=O)N1CCC(C)CC1)c(=O)n(C)c(=O)n2C -28.6%
CCC1CCCCN1C(=O)Cn1c(=O)oc2cc(S(=O)(=O)N3CCCCC3)ccc21 (stereo unspecified) -16.9%
Cc1ccc(NC(=O)C(Cc2ccccc2)NS(=O)(=O)c2ccc3c(c2)oc(=O)n3C)cc1F (stereo unspecified) -24.8%
Clc1cccc(-n2ncc3c(N4CCC(Cc5ccccc5)CC4)ncnc32)c1 -15.1%
CCCCNC(=O)C1CCC(Cn2c(=O)c3sccc3n(CC(=O)N3CCCC3)c2=O)CC1 (stereo unspecified) -5.47%
COC(=O)c1cccnc1-n1c(=O)c2cccnc2n(CC(=O)Nc2ccccc2F)c1=O -10.6%
CCOC(=O)c1c(C)oc2nc(C)nc(NCc3ccc(OC)cc3OC)c12 -1.53%
O=C(CSc1nncn2c1cc1sccc12)Nc1ccc(Br)cc1F 2.29%
CCOc1ccccc1NC(=O)C1CCN(S(=O)(=O)c2ccc3c(c2)CC(C)N3C(C)=O)CC1 (stereo unspecified) -0.443%
CCOC(=O)c1ccccc1NC(=O)Cn1c(=O)n(-c2cccc(C)c2)c(=O)c2c1c1cc(C)ccc1n2C 3.27%
CCOc1ccc(Cn2c(CNS(=O)(=O)c3ccc(Cl)s3)nc3cccnc32)cc1 -22%
COc1cccc(N2CCN(S(=O)(=O)c3ccc(-n4cnnn4)cc3)CC2)c1 0.646%
COc1cc(C2C(C(=O)Nc3ccccc3C)=C(C)Nc3ncnn32)ccc1OCC(N)=O (stereo unspecified) -6.09%
O=C(NCC(c1ccc2c(c1)OCO2)N1CCOCC1)c1cccc(Cl)c1 (stereo unspecified) -6.41%
CN(c1ccccc1)S(=O)(=O)c1ccc(NC(=O)c2cc(=O)c3ccccc3o2)cc1 -8.09%
COCC(=O)NCc1nc2cccnc2n1Cc1ccc(F)cc1 11.5%
O=C(CCn1cnnn1)Nc1ccc(F)cc1 68.5%
Cc1oc(C)c2c(=O)cc(-c3ccc4c(c3)OCO4)cc(OC(=O)c3cccc(Br)c3)c12 -31.6%
Cc1ccc(Cn2c(CNS(=O)(=O)c3ccc(F)c(Cl)c3)nc3cccnc32)cc1 -13.4%
COc1ccc(-n2ncc(C(=O)NCCc3ccsc3)c2C2CCN(C(=O)OC(C)(C)C)CC2)cc1 -1.71%
Cc1noc(-c2ccc(N3CCCCC3)c([N+](=O)[O-])c2)n1 39.1%
Cc1cc(NC(=O)c2cccc(Cl)c2)ccc1-c1cc2ccccc2oc1=O -10.3% [at 11.5 µM]
COc1ccc(-c2noc(-c3ccc(N4CCN(c5ccccc5)CC4)c([N+](=O)[O-])c3)n2)cc1OC -7.68%
CCOC(=O)C1(C)C=C(Nc2cccc(C(=O)O)c2)C(=O)N1c1cccc(C(=O)O)c1 (stereo unspecified) 4.91%
Cc1ccc(CNS(=O)(=O)c2ccc3[nH]c4c(c3c2)CCCC4)cc1 8.32%
O=C1CS(=O)(=O)C2(C(=O)N(Cc3ccccc3)c3ccccc32)N1c1ccccc1 (stereo unspecified) -11.2%
Cc1cn[nH]c1
Cc1ccc(CCNC(=O)c2ccc3c(c2)nc2n3CCC(C)C2)cc1 (stereo unspecified) 0.948%
Cc1cc(C)n(CCc2nc3c4ccccc4nc(N4CCN(c5ccccc5)CC4)n3n2)n1 -5.84%
CCc1nn(CC(=O)N2CCN(c3cc(C)ccc3C)CC2)c(=O)c2cc3occc3n12 -15%
CC1=C(c2ccc(C)c(C)c2)S(=O)(=O)N=C1N1CCC(C(=O)Nc2ccc(Cl)cc2)CC1 -21.4%
COc1ccc(CCNc2nc(SCc3ccc(F)cc3)nc3ccccc23)cc1OC -16.6%
CCc1ccc(-c2nc(SCC(=O)NCC3CCCO3)c(-c3ccc(F)cc3)[nH]2)cc1 (stereo unspecified) -16.6%
CNC(=O)c1ccc(CSc2nc3cccnc3n2Cc2cccc(F)c2)cc1 -12.7%
Fc1ccccc1N1CCN(c2ncc3c(n2)CCN(Cc2ccc(Br)s2)C3)CC1 -28.8%
Cc1ccc(C)c(NC(=O)N2CCc3cc(S(=O)(=O)N4CCC(C)CC4)ccc32)c1 -10.7%
Cc1ccc2nc(-c3cccc(Cl)c3)c(Nc3ccc4c(c3)OCO4)n2c1 10.9%
CC(Oc1ccccc1)C(=O)OCc1cc(=O)n2nc(C(C)C)sc2n1 (stereo unspecified) -22%
CCc1ccc(S(=O)(=O)c2nnn3c2nc(NCc2cccc(OC)c2)c2cc(Cl)ccc23)cc1 -12.4%
Cc1ccsc1CN(C(=O)c1ccc(Br)cc1)C1CCS(=O)(=O)C1 (stereo unspecified) -14.8%
Cc1ccc(NC(=O)N2CCN3CCCCC3C2)cc1F (stereo unspecified) 29.1%
O=C(Nc1cccc(-c2nc3ccccc3[nH]2)c1)c1ccccc1F -5.18%
COc1ccccc1NC(=O)Cn1cc(C(=O)c2ccncc2)c(=O)c2cc(C)ccc21 -21.9%
COc1ccc(Cl)cc1NC(=O)C1CCN(S(=O)(=O)c2ccc3c(c2)CCCN3C(=O)C2CCC2)CC1 1.26%
Cc1cc(=O)[nH]c2nnc(SCC(=O)Nc3ccc(F)cc3F)n12 1.14%
COc1ccc(NC(=O)c2cc(S(=O)(=O)N3CCCCC3)cn2C)cc1Cl -17.5%
CCCC(CCC)C(=O)Nc1nnc2n1CCS2 -15.6%
Cc1cccc(N(C)C(=O)c2cc(S(=O)(=O)N3CCCCC3)c[nH]2)c1 -9.64%
O=C(Nc1ccc(Cl)cc1)c1cc2c(Cl)nc3ccccc3c2s1 3.03%
CN(C)c1ccc(-c2noc(C3CC(=O)N(c4ccc5c(c4)OCCO5)C3)n2)cc1 (stereo unspecified) -1.87%
COC(=O)CSc1nc2sc3c(c2c(=O)n1Cc1ccccc1)CCC(C(C)(C)C)C3 (stereo unspecified) -13.5%
COc1cc(C(=O)OCCCN2CCCN(CCCOC(=O)c3cc(OC)c(OC)c(OC)c3)CC2)cc(OC)c1OC 1.39%
CCc1ccc(CNC(=O)c2nn(-c3ccc(OC)c(Cl)c3)c(=O)c3c2c2ccccc2n3C)cc1 -11.7%
COc1ccc(-c2c3c(nc4sc(C(=O)Nc5ccccc5F)c(N)c24)CC(C)(C)CC3=O)cc1 -10.6%
CCN(Cc1ccccc1)C(=O)CN1C(=O)CSc2ccc(S(=O)(=O)N(CC)CC)cc21 -8.15%
COc1ccc(-c2nn(CC(=O)NCc3ccccc3)c3c2cnc2ccc(F)cc23)cc1 45.4%
CCOc1ccccc1NC(=O)CN1C(=O)COc2ccc(S(=O)(=O)Nc3ccccc3)cc21 -13.7%
O=C(Cn1c(=O)nc(-c2ccccc2F)c2cc(Cl)ccc21)Nc1ccccc1C(F)(F)F 24.9%
Cc1ccc(-c2nc3nc(C)cc(N4CCN(c5cccc(C)c5)C(C)C4)n3n2)cc1 (stereo unspecified) 5.58%
Cc1ccc(NC(=O)C2CCCN(S(=O)(=O)c3ccc4[nH]c(=O)ccc4c3)C2)cc1C (stereo unspecified) -5.23%
CCCCN(C)CCCNC(=O)CN1C(=O)CSc2ccc(S(=O)(=O)N3CCOCC3)cc21 -1.57%
COc1cccc(C(=O)Nc2nc3nc(C)c(C)c(=O)n3[nH]2)c1 -11.3%
CCn1cc(C(=O)N2CCN(c3ccccc3)CC2)c(=O)c2cc(S(=O)(=O)N3CCCC3)ccc21 14.8% [at 11.5 µM]
CCc1ccccc1NC(=O)Cc1cn(C)c2ccccc12 -9.53%
O=C(Nc1c(O)c2ccccc2oc1=O)c1cccc(F)c1 -16.5%
Cc1ccc(Nc2ncnc3onc(C)c23)cc1Cl -18.7%
CCOc1ccc(S(=O)(=O)Nc2cccc(C)c2)c2cccnc12 -23.7%
Cc1cc(C)cc(NC(=O)c2ccc3c(O)c(S(=O)(=O)c4ccccc4)c(=O)[nH]c3c2)c1 -1.24%
COc1cc(Cl)c(C)cc1NC(=O)c1ccc(CN2C(=O)CCn3nc(C)cc32)cc1 -20.9%
Cc1c(Cl)cccc1NC(=O)CSc1ncc(S(=O)(=O)c2ccc(C(C)C)cc2)c(=O)[nH]1 -9.71%
CCC1(c2cnc[nH]2)Cc2ccccc2C1 -5.39%
CCCCOC(=O)c1ccc(NC(=O)Cc2coc3c(C)c(C)ccc23)cc1 -44.4%
COC(=O)c1ccccc1NC(=O)C1(c2cccs2)CCOCC1 -7.19%
CCOC(=O)c1c(C)[nH]c(C)c1S(=O)(=O)N1CCCC(C(=O)Nc2ccc(C)c(N(C)C)c2)C1 (stereo unspecified) -22.7%
CCOC(=O)c1[nH]c(C)c(CCC(=O)NCc2cccc(C)c2)c1C -3.21%
Cc1ccc(OCC(=O)N(Cc2ccco2)c2ccccn2)cc1 -0.496%
CCNC(=O)C1CCCN(c2nnc(C)c3c(C)n(-c4ccc(C)cc4)nc23)C1 (stereo unspecified) 0.357%
Oc1c(C(c2ccccc2Cl)N2CCOCC2)sc2nc(-c3ccco3)nn12 (stereo unspecified) -15.8%
CCC(=O)N1CCc2cc(CNC(=O)Nc3cc(C)ccc3C)ccc21 -22.9%
Cc1cccc(CNC(=O)CN2C(=O)C3CCCCN3c3ccc(C(=O)N4CCCC4)cc32)c1 (stereo unspecified) -4.86%
Cc1ccc(-c2nnc(Nc3ccc(Cl)c(Cl)c3)c3ccccc23)cc1S(=O)(=O)N(C)C -23.4%
Cc1ccc(C(=O)N2CCN(c3ccc(F)cc3)CC2)cc1NC(=O)c1nsc2ccccc12 16.4%
CC(=O)c1cccc(NC(=O)Cn2c(=O)oc3cc(S(=O)(=O)NC4CCCC4)ccc32)c1 -29.7%
CC(=O)c1ccc(Nc2nc3ccccc3nc2-n2nc(C)cc2C)cc1 -7.17%
CC(=O)N1CCN(c2nc3c(C)ccc(Cl)c3s2)CC1 -16.2%
Cc1nc(-n2nc(C)c(Cc3ccc(Cl)cc3)c2C)sc1C(=O)N1CCCCC1C (stereo unspecified) -4.17%
Cc1ccc(C)c(Cn2c3ccccc3c3cnn(CC(=O)NCC(C)c4ccccc4)c(=O)c32)c1 (stereo unspecified) 8%
O=C(CSCc1ccccc1Cl)NCc1ccc(Cl)c(Cl)c1 -5.59%
O=c1[nH]c2ccc(NCc3ccc(-c4ccc(Cl)cc4)o3)cc2[nH]1 -28.4%
CCOc1ccccc1Nc1nc(-c2ccc(C)cc2)c(CC(=O)O)s1 -1.48%
